# Some of the results follow.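 How the source made its calls: active = more than 2 SD below the DMSO mean: under 0.85 at 10 µM or 0.885 at 1 µM; inactive = the rest.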 Many values rest on one well or one pass, so single values are uncertain.
# Test system: RPE1
# Assay: nucleolar normality score relative to DMSO (fraction of DMSO control); RPE1 is a non-cancer human cell line; higher = more normal nucleoli (less nucleolar stress)
# Settings: 24 h
# 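Further: fixed cells immunolabelled for nucleolin and UBF, 40 image fields per well in 384-well plates, per-cell score = nucleolin nucleolar/nucleoplasm intensity ratio divided by the matching UBF ratio.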
Compound,nucleolar normality score (1 µM),nucleolar normality score (10 µM)
O=C(O)c1nn(Cc2ccc(Cl)cc2Cl)c2ccccc12 [Lonidamine],inactive: 1,inactive: 1.06
COc1cc2c(c(OC)c1OC)-c1ccc(OC)c(=O)cc1[C@@H](NC(C)=O)CC2 [Colchicine],inactive: 0.958,inactive: 0.977
CC(=O)O[C@H]1CC[C@@]2(C)C(=CC[C@@H]3[C@@H]2CC[C@]2(C)C(=O)CC[C@@H]32)C1 [Dehydroepiandrosterone acetate],inactive: 0.977,inactive: 0.997
COc1cc([C@@H]2c3cc4c(cc3[C@H](O)[C@H]3COC(=O)[C@H]23)OCO4)cc(OC)c1O [4'-Demethylpodophyllotoxin],inactive: 1.04,inactive: 0.902
O=C(CBr)N1CC([N+](=O)[O-])([N+](=O)[O-])C1,inactive: 0.888,inactive: 1.03
COc1cc(C2c3cc4c(cc3C(O)C3COC(=O)C23)OCO4)cc(OC)c1O (stereo unspecified),inactive: 1.09,inactive: 1.02
C=C1C[C@@H]2[C@H](CC[C@]3(C)C(=O)CC[C@@H]23)[C@@]2(C)C=CC(=O)C=C12 [Exemestane],inactive: 1,inactive: 1.06
O=P1(N(CCCl)CCCl)NCCCO1 (stereo unspecified) [Cyclophosphamide Monohydrate],inactive: 0.997,inactive: 1.07
"O=C(Nc1ccccc1)Nc1ccnc(Cl)c1 [Forchlorfenuron (KT-30, CPPU)]",inactive: 1.03,inactive: 1.03
N#CC(C#N)=NNc1ccc(OC(F)(F)F)cc1,inactive: 1.01,inactive: 1.05
Cc1sc2c(c1C)C(c1ccc(Cl)cc1)=N[C@@H](CC(=O)OC(C)(C)C)c1nnc(C)n1-2,inactive: 1.05,inactive: 1.07
O=C1C2CCN(CC2)C1(CO)CO,inactive: 0.996,inactive: 1.04
C=C1CCC2C(C=C(C)C(=O)C3(O)CC(C)C(O)C3C1O)C2(C)C (stereo unspecified) [Lathyrol],inactive: 1.08,inactive: 1.04
Cc1sc2c(c1C)C(c1ccc(Cl)cc1)=NC(CC(N)=O)c1nnc(C)n1-2 (stereo unspecified),inactive: 1.14,inactive: 1.04
C/C(O)=C(\C#N)C(=O)Nc1cc(Br)ccc1Br,inactive: 1.01,inactive: 1.03
Cc1cc2c(C(C)C)c(O)c(O)c(C=O)c2c(O)c1-c1c(C)cc2c(C(C)C)c(O)c(O)c(C=O)c2c1O [gossypol-Acetic acid],inactive: 1,inactive: 0.877
Cc1cc2c(C(C)C)c(O)c(O)c(C=O)c2c(O)c1-c1c(C)cc2c(C(C)C)c(O)c(O)c(C=O)c2c1O,inactive: 1.02,inactive: 0.896
O=c1[nH]c2ccc(Cl)cc2c(N[C@@H]2CN3CCC2CC3)c1-c1nc2ccccc2[nH]1,active: 0.338,active: 0.24
C=CC1CN2CCC1CC2C(O)c1ccnc2ccccc12 (stereo unspecified),inactive: 1.06,inactive: 1.09
COC1=C[C@]23CCCN2CCc2cc4c(cc2[C@@H]3[C@@H]1O)OCO4 [Cephalotaxine],inactive: 1.07,inactive: 0.91
C[C@]12CCC(=O)C(O)=C1CC[C@@H]1[C@@H]2CC[C@]2(C)C(=O)CC[C@@H]12 [Formestane],inactive: 1.04,inactive: 1.08
CCOc1ccccc1-n1c(C(C)N2CCN(C(=O)COc3ccc(Cl)cc3)CC2)nc2ccccc2c1=O (stereo unspecified) [Erastin],inactive: 0.933,inactive: 1
Cc1sc2c(c1C)C(c1ccc(Cl)cc1)=N[C@@H](CC(=O)Nc1ccc(O)cc1)c1nnc(C)n1-2,active: 0.858,inactive: 0.958

# Reference: the supplement of paper PMC10723795
